Results published in publication PMC4336329 (PLoS ONE, 2015).
In all, about 310,000 compounds went through this assay and about 14,000 (4.5%) showed an effect of 50% or more. The effect is printed as a negative number. This is one part of the list.

molecular target: human ether-à-go-go-related gene (hERG) potassium channel (human, UniProt Q12809); experiment: primary screen, population patch clamp on CHO cells stably expressing hERG
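Also: peak tail current of the secondary pulse compared with the same well before compound.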

human ether-à-go-go-related gene (hERG) potassium channel, sequence (Q12809 whole entry, looked up): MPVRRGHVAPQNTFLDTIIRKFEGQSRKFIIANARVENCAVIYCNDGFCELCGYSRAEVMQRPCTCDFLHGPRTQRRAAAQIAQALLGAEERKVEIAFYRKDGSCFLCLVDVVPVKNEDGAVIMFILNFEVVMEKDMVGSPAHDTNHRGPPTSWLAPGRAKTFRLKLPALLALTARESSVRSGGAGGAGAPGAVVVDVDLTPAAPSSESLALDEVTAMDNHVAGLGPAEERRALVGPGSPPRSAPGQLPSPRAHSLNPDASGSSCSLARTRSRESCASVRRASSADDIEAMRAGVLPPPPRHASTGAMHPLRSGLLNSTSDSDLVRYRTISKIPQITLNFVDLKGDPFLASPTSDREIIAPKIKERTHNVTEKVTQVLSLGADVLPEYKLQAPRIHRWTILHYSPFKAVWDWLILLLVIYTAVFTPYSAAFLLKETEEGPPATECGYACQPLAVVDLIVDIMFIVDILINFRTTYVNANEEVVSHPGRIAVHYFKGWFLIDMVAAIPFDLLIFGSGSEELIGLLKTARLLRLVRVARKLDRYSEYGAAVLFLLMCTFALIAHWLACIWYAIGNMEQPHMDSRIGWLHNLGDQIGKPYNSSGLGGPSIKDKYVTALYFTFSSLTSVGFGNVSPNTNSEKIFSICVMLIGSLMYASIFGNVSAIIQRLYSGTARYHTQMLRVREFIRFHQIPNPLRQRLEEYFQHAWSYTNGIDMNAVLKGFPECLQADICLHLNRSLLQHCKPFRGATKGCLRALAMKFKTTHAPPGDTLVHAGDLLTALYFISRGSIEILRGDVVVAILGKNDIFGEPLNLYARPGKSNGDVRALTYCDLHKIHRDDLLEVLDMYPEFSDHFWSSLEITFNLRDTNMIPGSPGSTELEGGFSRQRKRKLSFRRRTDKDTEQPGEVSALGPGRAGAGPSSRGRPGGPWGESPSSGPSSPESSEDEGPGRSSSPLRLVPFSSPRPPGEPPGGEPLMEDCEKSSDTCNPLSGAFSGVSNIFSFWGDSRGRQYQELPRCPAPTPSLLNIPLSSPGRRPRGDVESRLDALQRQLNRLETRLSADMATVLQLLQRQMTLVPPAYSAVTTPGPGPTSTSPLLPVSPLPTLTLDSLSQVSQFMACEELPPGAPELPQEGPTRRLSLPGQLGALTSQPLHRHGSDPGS

Compound	hERG current change (%, negative = inhibition) at 10uM [%]
CCOc1ccc(N(CC(=O)Nc2c(C)n(C)n(-c3ccccc3)c2=O)S(=O)(=O)c2ccccc2)cc1	-55.2
C=C(C)CSc1nnc(CCCCCNC(=O)OC(C)(C)C)o1	3.2
Cc1ccccc1NC(=O)CCC(=O)OCC(=O)c1cccc([N+](=O)[O-])c1	8.03
COC(=O)c1c(C(C)=O)c(C)n(C)c1C	7.34
COc1ccc(CCNc2ccc([N+](=O)[O-])cn2)cc1	-12.3
CCCCn1c(NS(=O)(=O)c2ccc(C)cc2)c(S(=O)(=O)c2ccccc2)c2nc3ccccc3nc21	4
CC(C)(Nc1ccccc1)C(=O)c1ccccc1	-6.13
CCc1ccccc1NC(=O)C1CCCN1C(=O)NCc1ccccc1 (stereo not shown)	15
CNc1ncc(C(=O)c2ccc(-c3ccccc3)cc2)s1	13.1
O=C(CSc1ccc(-c2ccccn2)nn1)NCc1ccc(Cl)cc1	-10.9
COc1ccc2nc(C)cc(SCC(=O)N/N=C/c3ccco3)c2c1	-5.39
COc1ccc(C2N(c3ccc(F)cc3)C(=O)C3CCCN32)cc1 (stereo not shown)	-9.09
Cl.N=c1sccn1CC(=O)Nc1cccc(Oc2ccccc2)c1	-65.5
CCCC(=O)N1CCN(Cc2nc3cc([N+](=O)[O-])ccc3n2C)CC1	-36.8
N#CCN=C(c1ccccc1)c1ccccc1	-7.38
Cc1occc1C(=O)n1nnc2ccccc21	-7.48
COC(=O)c1c(NC(=O)C(C)C)sc2c1CCN(Cc1ccccc1)C2.Cl	-38.4
Cc1nc(C(C)NC(=O)CCc2nnc(Cc3c[nH]c4ccccc34)o2)cs1 (stereo not shown)	30.4
COc1ccc(CNC(=O)CNC(=O)c2ccc(C(C)(C)C)cc2)cc1OC	16.7
CC(SCC(=O)NC(C)C1CC2CCC1C2)C(=O)O (stereo not shown)	-2.95
COc1ccccc1/C=C/C(=O)NC(=S)NCC1CCCO1 (stereo not shown)	-1.48
COc1ccc(CCNC(=O)CCN2C(=O)COc3ccccc32)cc1OC	6
COc1cc(/C=C2\N=C3CCCCCN3C2=O)ccc1O	2.47

Compound	hERG current change (%, negative = inhibition) at 10uM [%]
Cc1ccc(NC2=C(N3CCCCC3)C(=O)c3ccccc3C2=O)cc1	10.4
COc1cccc(C2=CC(c3ccc(OC)c(OC)c3OC)n3nnnc3N2)c1 (stereo not shown)	8.25
CCN(CC)CCOC(=O)C(Cc1cccc2ccccc12)CC1CCCO1.O=C(O)C(=O)O (stereo not shown)	-53.8
O=C(OCn1nnc2ccccc2c1=O)c1ccc(Br)o1	2.25
Cc1cc(OCC(=O)NCc2ccncc2)ccc1Cl	5.34
COc1ccccc1CNC(=O)C(CC(C)C)NC(=O)C1CCC(C)CC1 (stereo not shown)	4.27
CCCCOc1ccc(/C=C/C(=O)OCC(=O)NC(=O)NCC(C)C)cc1OCC	-0.62
O=C(Nc1cccc(C(F)(F)F)c1)C1CCN(S(=O)(=O)c2cccnc2)CC1	-33.2
C/C(=C\c1ccccc1)CN1CCN(C)CC1	16.2
CC(=O)c1cc(C(=O)Nc2ccc(C(=O)O)cc2)oc1C	18.1
CCN(CC)C(=O)C(=O)c1cn(CC(=O)NCc2ccc3c(c2)OCO3)c2ccccc12	0.489
C/C(Cn1nc([N+](=O)[O-])cc1C)=N\NC(=O)c1ccc(O)cc1O	18.7
Cc1cccc(CSc2nnc(-c3ccco3)n2C)c1	-10.8
CCCc1cc(C(=O)Cc2ccccn2)c(O)cc1O	5.95
O=C1c2ccccc2C(=O)c2c1cccc2N(CCO)CCO	-6.82
CSC1=NCCN1C(=O)Cc1ccc(Cl)cc1	2.51
COc1ccc(CCC(=O)NNC(=S)Nc2cccc(C(C)=O)c2)cc1	17.4
CCn1cc(C(=O)OCC(=O)N(C)Cc2ccccc2)c(=O)c2ccc(C)nc21	-11.1
COc1ccc(/C=N\Nc2ccccn2)c(OC)c1	12.5
O=C(COc1ccccc1Cl)NCCCNC(=O)c1cnccn1	5.28
C#CC[N+](CC)(CC)CC#Cc1cccc(Cl)c1.[Br-]	-0.889
CCOC(=O)n1c(=O)n(Cc2ccccc2C)c2ccccc21	-13.6
CCc1ccccc1NC(=O)c1ccoc1C	2.35

Compound	hERG current change (%, negative = inhibition) at 10uM [%]
CCOC(=O)c1cc(NC(=O)c2ccc(C)cc2)c(=O)oc1C(F)(F)F	-2.5
CCc1nc(SCC(=O)Nc2ccc(N(C)C)cc2)c2ccccc2n1	1.86
CC1CCCC(C)N1CCCNC(=O)Cn1c(=O)c2cccn2c2cccnc21 (stereo not shown)	2.77
Cc1ccc(OCC(=O)Nc2ccc3c(c2)nc(CCN2CCCCC2)n3C)cc1	-82.3
CC(C)CCN1C(=O)C2(OCCCO2)c2cc(Cl)ccc21	22.2
COc1ccccc1CNC(=O)C(=O)NCC1OCCN1S(=O)(=O)c1cccs1 (stereo not shown)	-14
CCOC(=O)C1CCCN(Cc2ccc3c(c2)OCO3)C1 (stereo not shown)	-9.12
Cc1cccc(C(=O)Nc2ccc(S(=O)(=O)Nc3nc(C)cc(C)n3)cc2)c1	1.72
CCCn1cc(CN2CCCC(C(=O)c3cccc(OC)c3)C2)c(C)n1 (stereo not shown)	-51
CCOC(=O)C1CCN(CC(C)(C)NS(=O)(=O)c2ccc(C)cc2)CC1	-4.95
CC1(C)Nc2ccccc2N(CCC(=O)N2CCOCC2)C1=O	6.16
O=C(COC(=O)c1cc(=O)[nH]c2ccccc12)Nc1nc(-c2ccccc2)cs1	-1.24
CCNC(=O)CN1C(=O)NC2(CCCc3cc(OC)ccc32)C1=O (stereo not shown)	-1.29
Cc1ccc2c(CSc3nnc(C4CC4)n3N)cc(=O)oc2c1	-2.45
Cc1cccc(NS(=O)(=O)c2csc(C(N)=O)c2)c1	8.92
O=C(Nc1ccc(S(=O)(=O)Nc2ccc(Cl)cc2)cc1)C1CCCO1 (stereo not shown)	-2.51
Cc1sc2ncnc(N3CCC(C(=O)Nc4ccc(Cl)cc4Cl)CC3)c2c1C	-7.65
CCCn1nnnc1NCc1cccn1C	-7.04
COc1ccccc1CN1C[C@@H]2C[C@@H](c3cccc(O)c3)N3CCC[C@@]23C1=O	-33.6
O=C(NCCc1ccccc1)c1ccc(Cl)c(S(=O)(=O)N2CCCC2)c1	-23.1
CCOC(=O)c1oc2ccc(Br)cc2c1CSc1nnc(C)s1	14
Cc1cc(N/N=C/c2cccc(Cl)c2)nc(NCc2ccccc2)n1	-7.24
O=C(c1cc([N+](=O)[O-])ccc1Cl)N1CCN(Cc2ccc3c(c2)OCO3)CC1	-16.6

Compound	hERG current change (%, negative = inhibition) at 10uM [%]
Cc1ccn(CC(C)C(=O)O)n1 (stereo not shown)	10.3
O=[N+]([O-])c1ccccc1S(=O)(=O)Nc1cccc(-c2ccc3nncn3n2)c1	-16.2
CCOC(=O)c1sc(NC(=O)CSc2nc(-c3ccco3)cc(C(F)(F)F)n2)c(C#N)c1C	-4.12
O=C(N/N=C/c1cc2c(cc1Br)OCO2)C1COc2ccccc2O1 (stereo not shown)	9.94
CCN1C(=O)CSC1=NC1C2CC3CC(C2)CC1C3 (stereo not shown)	11.5
CCc1ccc(OCCCC(=O)Nc2nccs2)cc1	25.2
COc1ccc(NC(=S)NCCCN2CCN(C3CCCCC3)CC2)cc1	-47.7
C/C(=N\OCc1nc2ccccc2c(=O)n1/N=C/c1cc(C)cc([N+](=O)[O-])c1O)c1ccccc1	-7.33
CCOC(=O)Cc1nnc(Nc2ccc(C(=O)NC)cc2)c2ccccc12	10.6
Cc1cccc(N2CCN(C(=O)c3ccc(CS(=O)(=O)c4ccccc4C)o3)CC2C)c1 (stereo not shown)	-32
COC(=O)CCC(=O)NNC(=O)c1cccc(Cl)c1	16.4
Cc1ccc(S(=O)(=O)Nc2cccc(Oc3cnccn3)c2)cc1	9.22
COc1ccc(C(=O)Nc2ccc(NC(=O)C3CC3)cn2)cc1	4.49
Cc1ccc(NS(=O)(=O)c2cccc(C(=O)n3ncc(C#N)c3N)c2)c(C)c1	-4.88
COc1ccc(CNC(=O)c2ccc3c(c2)N(C)C(=O)CS3=O)cc1 (stereo not shown)	4.89
CCn1c(SCC(=O)Nc2ccccc2Br)nnc1-c1cnccn1	-24
O=C(Nn1c(C2CCC2)nc2ccccc2c1=O)C1CCC1	-3.6
Cc1cc(C(=O)N2CCN(Cc3ccccc3)CC2)on1	-14.4
Cc1n[nH]c(=O)nc1NCc1ccccc1	-4.9
COc1ccc(OC)c(NC(=O)c2ccccc2N(C)S(=O)(=O)c2ccc(C)cc2)c1	-9.39
O=C(/C=C/c1c(Cl)cccc1Cl)NCc1ccccc1	14.3
COc1ccc(/C=C/C(=O)c2c(O)n(CCC3=CCCCC3)c(=O)[nH]c2=O)cc1OC	6.71
